Assay results as given in the RNAGym collection of RNA variant scans (doi:10.1093/nar/gkz1192).
Read counts are not given, so values of variants with three or more changes are uncertain.

B1: CPEB3 Ribozyme (parent)
chain: UAACAGGGGGCCACAGCAGAAGCGUUCACGUCGCAGCCCCUGUCAGAUUCUGGUGAAUCUGCGAAUUCUGCUGUAUAUCUC

Variants of: B1
Test: self-cleavage, relative activity (ratio to wild type); higher = more cleavage; in vitro, sequencing
Procedure, shortened: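 For each CPEB3 ribozyme variant, relative activity is its cleaved/total read fraction divided by the unmutated ribozyme's. Barcoded error-prone PCR libraries were transcribed by T7 RNA polymerase (5 hours, 37°C) and held in DNase I for 15 min before an EDTA stop, with cleavage occurring throughout. Template-switching reverse transcription and Illumina sequencing were used to read the RNAs. A 5-read minimum applied, and results are the mean of three batches.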

| Variant | self-cleavage |
| --- | --- |
| UAACAGGGGGUCACAGCAGAGGCGUUCACGUCGCGGCCCCUGUCAGAUUCUGGUGAAGCUGCGAAUUCUGCUGUAUAUCUC | 0.47 |
| UAACAGGGGGUCACAGCAGAAGGGUUCACGUCGCAGCCCCUGUCAGAUUCUCGUGAAUCUGCGAAUUCUGCUGUAUAUCUC | 0.05 |
| UAACAGGGGGUCACGGCAGAAGCGUUCACGUCGCAGCCUCUGUCAGAUUCUGGUGAAUCUGCGAAUUCUGCUGUAAAUCAC | 0.12 |
| UAACAGGGGGGCACAGCAGAAGCGUUCACGUCGCAGCCCCUGUCAGAUUCCGGAGAAUCUGCGAAUUCCGCUGUAUAUCUC | 0.34 |
| UAACAGGGGGUCACAGUAGAAGCGUUCACGUCGCAGCCCCUGUCGGAUUCUGGUGAAUCUGCGAAUUCUGCUGUAUAUCUC | 0.37 |
| UAACAGGGGGUCUCAGCAGAAGCGUUCUCGUCGCAGCCCCUGUCAGAUUCUGGUGAAUCUGCGAAUACUGAUGUAUAUCUC | 0.04 |
| UAACAGGGGGUCACAGCAGGAGCGUUCACGUCGCAGCCCCUGUCAGAUUCUGGUGAAUCUGCGAAUUCAGCUGUAUAUCUC | 0.17 |
| UAACAGGGGGUCACAGCAGAAGCGUUCACGUCUCAGCCCCUGUCAGAUUCUGGUGGAUCUCCGAAUUCUGCCGUAUAUCUC | 0.05 |
| UAACAGGGGGUCACAGCAGAAGCGUUCACGUCGCAGCCCCUAUCAGAUUCUGGUGAAUCUGCGAAUCCUGCUGUAUAUCUC | 0.11 |
| UAACAGGGGGUCGCAGCAGAAGCGUUCACGUCGCAGCCCCCGUCAGAUUCUGGUGAAUCAGCGAAUUCUGCUGUAUAUCUC | 0.26 |
| UAACAGGGGGUCACGGCAGAAGCGUUCACGUCGCAGCCCCUGUCAGUUUCUGGUGAAUCUGCGAAUCCUGCCGUAUAUCUC | 0.56 |
| UAACAGGGGGUCACAGCAGAAGCGUUCACGUCGCUGCCCCUGUCAGACUCUGGUGAAUCUGCGAAUUCUGCCGUUUAUCUC | 0.05 |
| UAACAGGGGGUCACAGCAGAAGCGUUCACGUCGCAGCCCGUGUCAGAUUCUGGUGAAUCUGCGAGUUCUGCCGAAUAUCUC | 0.02 |
| UAACAGGGGGUCACAGCAGAUGCGUUCACGUUGCAGCCCCUGUCAGAUUCUGGUGAAUCUGCGGAUUCUGCUGUAUACCAC | 0.03 |
| UAACAGGGGGUCACAGCGGAAGCGUUCACGUCGCAGCCCCUGUUAGGUUCUGGUGAAUCUGCGAAUUCUGCUGUAUAUCUC | 0.27 |
| UAACAGGGGGUCACUGCAGAAGCGUUCACGUCGCAGCCCCUGCCAGAUUCUGGUGAAUCUGCGGAUUCUGCUGUAUAUCUC | 0.15 |
| UAACAGGGGGUCACAGCAGAAGCGUUCUCGUCGCAGCCCCUGUCAGGUUCUGGUGAAUCUGCGAAUUCUGCAGUAUAUCCC | 0.42 |

| Variant | self-cleavage |
| --- | --- |
| UAACAGGGGGUAACAGCAGAAGCGUCCACUUCGCAGCCCCUGUCAGAUUCUGGUGAAUCCGCGAAUUCCGCUGUAUAUCUC | 0.09 |
| UAACAGGGGGUCACGGCAGAAGCGUUCACGUCGCAGCCCCUGUCAGAUUCCGGUGAAUCUGCGAAUUCUGCUGUAUAUCUC | 0.24 |
| UAACAGGGGGUCACAGCUGAAGCGUUCACGUCGCAGCCCCUGUCAGAUUCUGGUGAAUCUGCGAAUUCUGCCGUAUAUCUC | 0.18 |
| UAACAGGGGGUCACAGCAGAAGCGUUCCCGUCGCAGCCCCUGUCAGAUUCUGGUGAAUCUGCGAAUUCUGCUGAAUACCUC | 0.27 |
| UAACAGGGGGUCACAGCAGAAGCGUUCACGUCGCCGCCCCUGUCAGAUUCUGGUGAAUCUGCGAAUUCUGCUGUAUAUCCC | 0.44 |
| UAACAGGGGGUCACAGCAGAAGCGUUCACGUCGCAGCCCCUGUCAGUUUCCGGUGAAUCUGCGUAUUCUGCUGUAUAUCUC | 0.06 |
| UAACAGGGGGUCACAGCAGAAACGUUCCCGACGCAGCCCCUGUCGGAUUCUGGUGAAUCUGCGAAUUCUGCUGUAUAUCUC | 0.35 |
| UAACAGGGGGGCACAGCAGAAGCGUUCACGUCGCAGCCCCUGUCAGAUUCUGGUGAAACUGCGAAUUCUGCUGUGUAUCUC | 0.23 |
| UAACAGGGGGUCACAGCAGGAGCGUUCACGUCGCAGCCCCCGUCAGAUUCUGGUGAAUCUGCGAAUUCCGCUGUAUAUCUC | 0.18 |
| UAACAGGGGGUCACAGCAGAAGCGUUCACGUCGCAGCCCCUGUCGGAUUCCGGUGAAUCUGCGAAUUCUGCUGUAUAUCUC | 0.13 |
| UAACAGGGGGUCACAGCAGAUGCGUUCACGACGCAGCCCCCGUCAGAUUCUGGAGAAUCUGCGAAUUCUGCUGUAUAUCUC | 0.05 |
| UAACAGGGGGUCACAACAGAAGCGUUCACGUCGCAGCCCCUGUAGGAUUCUGGUGAAUCUGCGAAUACUGCUGUAUAUCUC | 0.07 |
| UAACAGGGGGGCACAGCAGAAGCGUUCACGUCGCAGCCCCUGUCAGAUUCUGGUGAAUCCGCGAAUUCCGCUGUAUAUCUC | 0.08 |
| UAACAGGGGGUCACAGCUGAAGCGUUCACGUCGCAGCCCAUGUCAGAUUCUGGUGAAUCUGCGAAUUCUGCUGUAUAUCUC | 0.21 |
| UAACAGGGGGUCUCAGCAGAAGCGUUCACGUCGCAGCCCCUGUCAGAUUCUGGCGAAUCUGCGAAUUCUGCUGUAUAUCUC | 0.28 |
| UAACAGGGGGUCACGGCAGAAGCGUUCACGACGCAGCCCCUGUCAGAUUCUGGUGAAUCUGCGAAUUCUGCUGUAAGUCUC | 0.1 |
| UAACAGGGGGUCACAGCGGAAGCGUUCACGUCGCAGCCCCUGUCAGAUUCUGGUGAGUCUGCGAAUUCUGCUGUAUAUCUC | 0.3 |
